Measured values: PubChem BioAssay AID504333 (National Center for Advancing Translational Sciences (NCATS), 2011)
Hit rate of the full screen: of about 360,000 compounds, about 16,000 (4.4%) were called active. Inconclusive means that the source gave no clear call. Such entries were picked first, then a sample of the others. Calls come from the whole dose curve; as a rule, active = well fitted inhibition curve with a large enough effect; inconclusive = small, poorly fitted or top-dose-only effect; inactive = no such curve, though single readings can be large or run the other way. Where the call is inconclusive, the potency comes from a doubtful curve fit.

Target: Bromodomain adjacent to zinc finger domain protein 2B (Homo sapiens) (UniProt Q9UIF8)
Sequence of UniProt Q9UIF8 (Q9UIF8 whole entry, looked up, the tested form may be a part): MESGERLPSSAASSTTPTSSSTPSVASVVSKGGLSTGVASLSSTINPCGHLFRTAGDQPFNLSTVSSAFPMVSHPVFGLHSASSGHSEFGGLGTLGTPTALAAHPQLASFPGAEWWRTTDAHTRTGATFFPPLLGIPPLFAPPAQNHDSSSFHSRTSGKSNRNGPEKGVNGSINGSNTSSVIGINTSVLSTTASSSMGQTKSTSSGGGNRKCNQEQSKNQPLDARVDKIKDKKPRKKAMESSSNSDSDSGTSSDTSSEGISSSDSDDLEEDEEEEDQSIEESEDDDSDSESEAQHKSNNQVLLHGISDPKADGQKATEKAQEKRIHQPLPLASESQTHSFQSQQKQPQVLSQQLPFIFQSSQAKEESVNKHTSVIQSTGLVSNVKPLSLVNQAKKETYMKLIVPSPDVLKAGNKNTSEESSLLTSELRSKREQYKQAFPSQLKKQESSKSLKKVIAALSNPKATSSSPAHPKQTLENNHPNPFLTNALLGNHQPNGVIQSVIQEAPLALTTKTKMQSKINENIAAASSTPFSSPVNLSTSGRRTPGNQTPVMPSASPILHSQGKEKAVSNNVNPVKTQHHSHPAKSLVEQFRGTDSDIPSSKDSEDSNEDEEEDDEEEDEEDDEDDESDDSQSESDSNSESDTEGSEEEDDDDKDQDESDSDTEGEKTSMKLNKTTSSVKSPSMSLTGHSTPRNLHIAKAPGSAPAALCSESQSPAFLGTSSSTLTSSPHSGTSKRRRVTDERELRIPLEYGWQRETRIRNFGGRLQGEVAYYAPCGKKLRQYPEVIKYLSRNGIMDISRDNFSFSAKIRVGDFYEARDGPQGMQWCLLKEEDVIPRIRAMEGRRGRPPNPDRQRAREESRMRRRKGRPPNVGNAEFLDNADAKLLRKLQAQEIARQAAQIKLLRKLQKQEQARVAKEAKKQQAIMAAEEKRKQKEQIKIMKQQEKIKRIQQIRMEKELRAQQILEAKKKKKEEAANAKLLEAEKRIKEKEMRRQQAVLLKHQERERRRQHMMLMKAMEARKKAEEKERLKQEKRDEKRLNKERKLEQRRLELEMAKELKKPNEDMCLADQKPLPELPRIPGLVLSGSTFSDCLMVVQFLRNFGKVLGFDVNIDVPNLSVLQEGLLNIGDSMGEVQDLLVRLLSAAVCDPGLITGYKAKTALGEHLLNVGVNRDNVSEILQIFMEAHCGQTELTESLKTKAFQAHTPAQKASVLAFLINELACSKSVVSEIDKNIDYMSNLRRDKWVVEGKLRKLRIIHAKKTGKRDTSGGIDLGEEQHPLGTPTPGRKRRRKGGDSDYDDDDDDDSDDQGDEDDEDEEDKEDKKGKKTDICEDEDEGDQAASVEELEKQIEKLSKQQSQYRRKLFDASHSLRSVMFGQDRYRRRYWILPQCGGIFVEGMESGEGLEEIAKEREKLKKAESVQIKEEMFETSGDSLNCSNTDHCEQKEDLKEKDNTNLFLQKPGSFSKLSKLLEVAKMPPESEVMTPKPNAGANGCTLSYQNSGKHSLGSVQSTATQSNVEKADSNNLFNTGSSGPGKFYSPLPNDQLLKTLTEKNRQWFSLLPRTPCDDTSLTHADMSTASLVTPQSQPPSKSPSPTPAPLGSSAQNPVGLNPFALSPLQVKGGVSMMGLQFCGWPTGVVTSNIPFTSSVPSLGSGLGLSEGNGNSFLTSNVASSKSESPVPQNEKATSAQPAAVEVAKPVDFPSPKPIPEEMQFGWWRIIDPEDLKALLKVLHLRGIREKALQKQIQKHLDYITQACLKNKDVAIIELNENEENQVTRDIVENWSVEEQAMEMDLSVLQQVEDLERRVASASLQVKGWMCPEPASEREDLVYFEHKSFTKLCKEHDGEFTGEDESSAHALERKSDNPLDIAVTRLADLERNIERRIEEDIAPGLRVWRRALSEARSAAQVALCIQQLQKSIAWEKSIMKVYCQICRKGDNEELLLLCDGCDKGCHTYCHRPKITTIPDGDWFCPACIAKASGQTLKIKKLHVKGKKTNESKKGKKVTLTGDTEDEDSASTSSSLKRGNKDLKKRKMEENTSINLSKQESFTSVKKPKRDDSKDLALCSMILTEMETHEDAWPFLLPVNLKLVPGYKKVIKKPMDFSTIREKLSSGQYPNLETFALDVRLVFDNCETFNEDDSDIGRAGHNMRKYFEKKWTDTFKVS
Test: qHTS Assay for Inhibitors of BAZ2B; note: nearly all actives have a fitted effect of over 60% in size
Conditions: AlphaScreen BAZ2B-H3K14Ac peptide displacement; series mostly up to 114 µM
How it was run: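 AlphaScreen luminescence quantifies BAZ2B engagement of H3K14Ac peptide; the protein and biotinylated peptide are both at 50 nM final, buffer PBS pH 7.4 with 0.01% Tween-20, all steps at room temperature.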
Potency is the fitted concentration of half-maximal effect; tags give direction and shape of the fitted curve.

SMILES | Potency
O=C(Nc1ccc(S(=O)(=O)NCc2ccco2)cc1)c1ccc(F)cc1 | inconclusive: 63.1 µM [inhibitor, partial curve, poor fit]
Cc1cc2cc(CN(Cc3cccs3)Cc3nnnn3CC3CCCO3)c(=O)[nH]c2cc1C (configuration not stated) | inconclusive: 100 µM [inhibitor, single point]
CC(/C=C/c1ccc(N(C)C)cc1)=N/N=C1/NC(=O)CC(C(=O)Nc2ccc(Cl)cc2)S1 (configuration not stated) | inconclusive: 22.4 µM [inhibitor, full curve]
COc1ccc(OC)c(C(c2nnnn2CC2CCCO2)N2CCN(C)CC2)c1 (configuration not stated) | active: 79.4 µM
O=C(O)c1ccc(-c2ccco2)n1Cc1ccccc1 | inconclusive: 28.2 µM [inhibitor, single point]
COc1ccc(CNC(=O)Cn2c(=O)c3cccn3c3cccnc32)cc1 | inconclusive: 70.8 µM [inhibitor, single point]
Cc1cc(OCCN2CCCCCC2)ccc1[N+](=O)[O-] | active: 56.2 µM
CC(C)Cc1nc2ccc(N)cc2[nH]1 | inactive
COc1ccc(C(=O)Nc2nnc(SCc3cc(=O)c4cc(C)ccc4[nH]3)s2)cc1OC | inactive
Cc1nn(-c2ccccc2)c2sc(C(=O)Nc3ccc(Cl)cc3Cl)cc12 | inactive
NC(=O)CSc1cn(Cc2cccc(F)c2)c2ccccc12 | inconclusive: 70.8 µM [inhibitor, single point]
CCn1cc([N+](=O)[O-])c(C(=O)N2N=C(c3ccc(Cl)c(Cl)c3)CC2c2ccccc2O)n1 (configuration not stated) | inconclusive: 14.1 µM [inhibitor, full curve]
Cc1ccc(-n2c(O)c(C=Nc3ccccc3-c3n[nH]c(=S)[nH]c3=O)c3ccccc3c2=O)cc1C | active: 44.7 µM
COCc1ccc(C(=O)N2CCc3c([nH]c4ccccc34)C2c2ccccn2)s1 (configuration not stated) | active: 35.5 µM
CCN(CC)CCCNCC(=O)Nc1ccc2c(c1)CCC2 | active: 56.2 µM
COc1ccc(-n2c(COc3ccccc3)nnc2SCC(N)=O)cc1 | inactive
CC1CN(c2ccc([N+](=O)[O-])c(NCCOc3ccccc3)c2)CC(C)N1 (configuration not stated) | inconclusive: 22.4 µM [inhibitor, full curve]
Cc1ccc(CNc2ccc3c(c2)nc(C)n3C)cc1 | inconclusive: 56.2 µM [inhibitor, partial curve]
Cc1ccc(-c2nc(S(=O)(=O)c3ccc(F)cc3)c(N3CCN(c4ccccc4)CC3)o2)cc1 | inconclusive: 0.0631 µM [inhibitor, full curve, poor fit]
COc1ccc2c(c1)C1(C)CC(C)(C)N2C(=O)N1c1ccccc1 (configuration not stated) | inconclusive: 70.8 µM [inhibitor, single point]
Cc1oc(-c2ccc(Cl)cc2)nc1CSCC(=O)NC1CCN(Cc2ccccc2)CC1 | inconclusive: 79.4 µM [inhibitor, single point]
Cc1ccc(OCC(=O)N/N=C/c2cccc3cccnc23)cc1 | active: 31.6 µM
O=C(CSc1nc(=O)n2cc(Cl)ccc2n1)Nc1ccc2c(c1)OCCO2 | inconclusive: 50.1 µM [inhibitor, partial curve]
CC(C)(C)N=C1NN=C(c2cc3ccccc3o2)CS1 | inconclusive: 89.1 µM [inhibitor, single point]

SMILES | Potency
COc1cc(/C=C/c2ccc3cccc([N+](=O)[O-])c3n2)ccc1OCC(=O)O | active: 56.2 µM
O=C(Nc1ccc2c(c1)CCCN2C(=O)c1cccs1)c1cccc(F)c1 | inconclusive: 70.8 µM [inhibitor, single point]
CN(C)/C=C/C(=O)c1cnc(-c2cccc(Cl)c2)s1 | inconclusive: 35.5 µM [inhibitor, full curve]
O[C@@H]1CN(C2CCCCC2)CC[C@H]1N1CCN(CCc2ccccc2)CC1 | inactive
CCOc1ccccc1NC(=O)Cn1nnc(C(=O)NCc2cccs2)c1N | inactive
CCOc1ccccc1NC(=O)c1cc(-c2ccncc2)nc2c(Cl)cccc12 | inconclusive: 70.8 µM [inhibitor, partial curve]
O=C(/C=C\c1ccco1)NC(=S)Nc1ccccc1O | active: 50.1 µM
CCCN(c1ccccc1F)S(=O)(=O)c1ccc2c(c1)C(C)(C)C(=O)N2C | inactive
COc1ccc(OC)c(CCNC(=O)Cn2cccc2C(=O)c2ccccc2C)c1 | inconclusive: 50.1 µM [inhibitor, partial curve]
Cc1ccc(NC(=O)C2C3C=CC4(O3)C2C(=O)N(CCCN2CCCC(C)C2)C4C(=O)NC2CCCCC2)cc1 (configuration not stated) | inactive
O=C(C1CCCO1)N1CCN(S(=O)(=O)c2cc(F)ccc2F)CC1 (configuration not stated) | inactive
CCN(CC)CCNC(=O)COc1ccc(Cl)cc1Cl | inactive
N#C/C(=N\O)c1nc2ccccc2[nH]1 | inconclusive: 89.1 µM [inhibitor, single point]
Nc1ccccc1-c1ccccc1N | inactive
C/C(=N\NC(=S)NCc1ccccc1)c1ccc2ccccc2c1 | inconclusive: 39.8 µM [inhibitor, full curve]
CN(C(=O)COc1cccc(Br)c1)C1CCS(=O)(=O)C1 (configuration not stated) | inactive
Cc1ccc(NC(=O)CSc2nc3ccccc3c(=O)n2CCCC(=O)N2CCCC2)cc1 | inconclusive: 89.1 µM [inhibitor, single point]
Cc1[nH]c2ccc(C(=O)NCCCN3CCCCC3)cc2c1C | inconclusive: 70.8 µM [inhibitor, partial curve]
CC(C)(C)C(=O)[C@@H]1[C@@H]2C(=O)N(c3ccc4c(c3)OCCO4)C(=O)[C@@H]2C2c3ccccc3C=CN21 (some centres not stated) | inconclusive: 50.1 µM [inhibitor, partial curve]
CCCCCCN1C=CC=C/C1=C/C=C(C#N)C#N | active: 25.1 µM
CCN1CCN(c2ccc(S(=O)(=O)N3CCCCC3)cc2NC(=O)COc2ccc(Cl)cc2)CC1 | inconclusive: 44.7 µM [inhibitor, partial curve]
CC(C)OC(=S)N/C(=N\S(=O)(=O)c1ccccc1)c1ccccc1 | inactive
Cc1cccc(C)c1NC(=S)NC(=O)c1ccc(Br)o1 | inconclusive: 50.1 µM [inhibitor, partial curve]
